The source of these data is PMC10468207 (eLife, 2023).

In this assay the target is T1, Atto-488- or Atto-594-labelled, biotinylated CaMKII^WT-AviTag (human, UniProt Q9UQM7 6-478, Atto-488 or Atto-594 maleimide dye on the sortase recognition peptide (CLPETGG) joined to the N-terminus with SrtA; biotin on the AviTag).
T1 construct: Calcium-calmodulin-dependent protein kinase 2 alpha, human, lacking the first 5 residues, with a 30-residue linker; The two differently labelled samples differ only in the fluorophore and are written as one molecule; also called Atto-488-CaMKII^WT; Atto-594-CaMKII^WT; source: E. coli BL21 DE3, purified; biotinylated with BirA and labelled with sortase A in vitro; not shown: His6, N-terminal, …
The assay is described as follows: single molecule TIRF colocalization; differently labelled holoenzymes, 55 nM CaMKII, incubated with 150 nM CaM/Ca2+, 1 mM ATP, 2 mM MgCl2 for 2 min at 37 °C (activated), then bound to a NeutrAvidin coverslip; 25 mM Tris pH 8, 150 mM KCl, 1 mM TCEP; holoenzyme with holoenzyme. The conditions noted are these: both partners purified.

B1: Atto-488- or Atto-594-labelled, biotinylated CaMKII^KD-AviTag (enzyme)
chain: not shown
modifications: Atto-488 or Atto-594 maleimide dye on the sortase recognition peptide (CLPETGG) joined to the N-terminus with SrtA; biotin on the AviTag
notes: Calcium-calmodulin-dependent protein kinase 2 alpha, human, lacking the first 5 residues, with a 30-residue linker; The two differently labelled samples are written as one molecule; also called labeled CaMKII^KD; differently labeled CaMKII^KD; source: E. coli BL21 DE3, purified; biotinylated with BirA and labelled with sortase A in vitro; not shown: His6, N-terminal, cleaved; AviTag, C-terminal, …
Take B1: the binding result is “binds”.
